Reference: the supplement of paper PMC3334620
Over roughly 33,000 sequences, “E-score (-0.5 to 0.5)” has its median near -0.056; the highest 2% begin near 0.38. The list shows a part of the results.

Target: Stb4 (UniProt P50104)
Assay: PBM E-score (8-mer binding enrichment) (E-score (-0.5 to 0.5)); higher = stronger / more preferred TF binding; most listed sequences are background and not binding sites
Conditions: protein concentration: 200 nM; construct: GST-DNA-binding domain
In short: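 For each ungapped eight-base word taken together with its reverse complement, the Universal PBM Analysis Suite assigned an E-score. Binding data came from GST-tagged yeast transcription factors, applied at about 100-200 nM, on universal all-10-mer Agilent arrays made double-stranded by primer extension. Fluorescent anti-GST marked bound protein, and scans were normalised with masliner.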

Sequence | PBM E-score
ACTTGTAG | -0.0622
TCCTCGAA | -0.296
GAAAATTC | 0.144
ATCCGCAC | 0.37
CCATAAAG | -0.183
AGACGCAT | -0.0866
ATCTTGCC | -0.0102
GGATACAC | 0.196
CACAATCA | -0.0537
CTAGTTTC | 0.147
GAACCGCC | 0.0632
TCCCCGGA | 0.301
CGTTCGCC | 0.0826
CAGGGGAA | -0.0991
CGTAAGGC | -0.197
CTGATAAC | -0.12
ATCTAAAA | 0.0488
CGCACTCC | -0.0375
AATTTTTC | 0.153
ACCCGAAT | 0.425
ACTGACTG | -0.092
TAATACTA | 0.0864
AACGGACA | 0.0833
AGGCGTAC | -0.177

Sequence | PBM E-score
ACGGAGCC | 0.248
CCTAATGC | -0.332
GACGAGGC | -0.0506
TCTTCCAA | -0.0347
TAGCCACA | -0.126
AACACCTT | -0.00623
AGTAGACT | -0.143
GACGTTCC | 0.115
GAATACTA | 0.0368
ATAGGTTA | 0.0289
TGGGGAAA | -0.111
CGGTCCTA | 0.0807
ACATTGCT | -0.233
CTTGTTGA | -0.107
AATTCTAA | 0.0655
AAACATCG | -0.00353
CAGCATAA | -0.185
CCTAAATC | 0.0193
CATAAAAA | -0.144
GGATTCAA | -0.0277
GCCCATCC | 0.0741
AATCGGCT | 0.344
CAAAGTTC | 0.0445
CTTATTAA | 0.0696

Sequence | PBM E-score
AGTATTCG | 0.147
CAGGGCAG | -0.114
CATTGTGC | -0.178
TACTAACA | -0.177
CGGCGGCC | 0.0617
CAGGAGAA | -0.107
AATCCGTG | 0.172
CGTGCGGA | 0.151
CTAGGTTC | 0.126
GGTACACA | -0.0472
CACAGATG | -0.0862
ACACCGCG | -0.0623
GAACCGGC | 0.262
CCTTATCA | -0.109
CCTGTGAG | -0.288
ACATTCTC | -0.0633
ACCCAGAC | 0.076
GCGTTACA | -0.0322
GCAGCAGA | -0.244
ATCTGTGG | -0.127
GCCCTGTA | -0.201
AGTACTTC | 0.117
GTTTTCTA | 0.0512
ATAATCCG | 0.295

Sequence | PBM E-score
GCAAAAAA | 0.137
ATTCCGGA | 0.405
GAAAAAGA | 0.0739
TATAATGA | -0.0464
CAGGAATC | -0.0371
CGTATCCC | -0.13
AGAACCAG | -0.0906
CGCACCAG | -0.0613
GGTTCAAA | 0.138
ATTAAGTG | -0.0009
GCGCCACC | -0.095
GCGCGGGA | 0.166
ATTTCATC | -0.0624
CAGACGCC | -0.127
ATTTGCAG | -0.0442
GCGTTCCA | -0.104
CCGCCCAA | 0.0632
AGGCGAAG | -0.162
CCTTGGCC | -0.199
CAACGCTC | -0.251
CAGAGGAG | -0.255
GCGTTTCC | 0.25
